# The other results are listed elsewhere or left out. These are further read-outs of the screen, such as a control signal, another cell line or another target. No call is given for them. Compounds called inactive in the main read-out are mostly missing here.
# Assay: beta-lactam sensitization of Mtb H37Rv, H37Rv (AID 434955);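 further: growth measured after seven days incubation then overnight dye step; 0% = bacteria only wells and 100% = bacteria with antibiotic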
# Settings: M. tuberculosis H37Rv growth with meropenem, percent inhibition; measured here: primary screen without meropenem; at 25 µM
row,Compound,inhibition
1,COc1cc(C2SCC(=O)Nc3c2c(=O)[nH]n3C2CCCCCC2)cc(OC)c1OC (centres undefined),-10.7%
2,COc1ccccc1N1CCN(C(=O)CNC(=O)Cn2cnc3sc(C)c(C)c3c2=O)CC1,-1.94%
3,CC(C)Cc1ccc(CN2CCCC(NC(=O)Cn3cnnn3)C2)cc1 (centres undefined),11.5%
4,COc1ccc(/C=C2/CCCC(C(=O)C(F)(F)F)=C2O)cc1OC,3.18%
5,Cn1ccc(C(=O)Nc2sc3c(c2C(N)=O)CCCCC3)n1,11.6%
6,O=C(CC12CC3CC(CC(C3)C1)C2)NCc1ccc(F)cc1,2.73%
7,CN(C)S(=O)(=O)Nc1ccc(C(=O)O)cc1,-3.8%
8,O=C(CCCN1C(=O)c2cccnc2Oc2ccc(Cl)cc21)N1CCCCC1,3.24%
9,CCc1ccc(NC(=S)Nc2ccc(S(=O)(=O)Nc3ncccn3)cc2)cc1,9.99%
10,COc1ccccc1N1CCN(S(=O)(=O)c2ccc3c(c2)CC(C)N3C(C)=O)CC1 (centres undefined),2.7%
11,COC(=O)c1ccc(C2NC(C(=O)O)CS2)cc1 (centres undefined),-10.2%
12,O=C(CN1C(=O)COc2ccccc2C1=O)c1ccc2c(c1)OCCO2,4.6%
13,COc1ccc(CN2C(=O)c3cccnc3C2=O)cc1S(=O)(=O)N1CCOc2ccccc21,2.04%
14,CCSc1nnc(NC(=O)CSc2nccn2-c2cccc(C)c2)s1,36.4%
15,O=C(CCCC(=O)OCC(=O)c1ccc(Cl)cc1)NC1CCCCC1,30.8%
16,O=C(c1ccc([N+](=O)[O-])o1)N(Cc1nnc(-c2ccccc2Cl)o1)C1CC1,100%
17,CCCCn1c(SCC(=O)Nc2nnc(C)s2)nc2c1c(=O)n(C)c(=O)n2C,8.37%
18,Cc1nc(Nc2cccc(Cl)c2)c2oc3ccccc3c2n1,77.2%
19,O=C(Cc1ccc(Br)cc1)Nc1ccc(S(=O)(=O)N2CCCC2)cc1,12.9%
20,Cc1ccc(C(C)C)c(OCCNC(=S)Nc2cccc3ccccc23)c1,-1.19%
21,CC1CCN(C(=S)NC(=O)c2ccccc2)CC1,39.6%
22,O=C(NC1CCN(C(=O)NCc2ccccc2)CC1)c1ccco1,1.68%
23,O=C(CCCN1CCc2[nH]c3ccc(F)cc3c2C1)c1ccc(F)cc1,-2.87%
24,COc1ccc(C(=O)N2CCCC(Nc3ccc(F)cc3)C2)cc1F (centres undefined),6.67%
25,CCCCCCCN(C(=O)CCl)c1ccccc1C,20.3%
26,Cc1ccc(C)c(N2CCN(C(=O)c3ccc(CSc4nc5ccncc5[nH]4)cc3)CC2)c1,8.74%

row,Compound,inhibition
1,O=C(OCC(=O)c1ccc[nH]1)C1=COCCO1,20.7%
2,CSc1nnc(N2C(=O)C(O)=C(C(=O)c3ccco3)C2c2cccc(Cl)c2)s1 (centres undefined),4.57%
3,CCOc1ccc(-c2nc(-c3ccccc3C)no2)cc1,26.5%
4,Cc1ccc(F)cc1NC(=O)CCc1c(C)nn(-c2ccc(N3CCCCC3)nn2)c1C,1.74%
5,Cc1ccc(N2CCN(S(=O)(=O)c3ccc4c(c3)n(C)c(=O)c(=O)n4C)CC2C)cc1 (centres undefined),3.45%
6,CC(=O)Nc1ccc(S(=O)(=O)N2CCN(c3cc4c(cc3[N+](=O)[O-])n(C)c(=O)n4C)CC2)cc1,-2.09%
7,Cc1ccc(N/N=C/c2cccnc2)cc1,93.6%
8,Cc1cc(NC(=O)NC(=O)c2ccccc2F)no1,-0.61%
9,O=C(CSc1nnc(CNC(=O)c2ccccc2)o1)NCc1ccc(F)cc1,4.57%
10,CC(=O)N1c2ccc(S(=O)(=O)N3CCCC3C(=O)Nc3cccc(F)c3)cc2CC1C (centres undefined),-10.3%
11,CN1CCN(CC(=O)N2CCn3c4c(c5cc(C6CCCCC6)ccc53)CCCC42)CC1 (centres undefined),100%
12,COc1ccccc1NC(=O)c1oc2ccccc2c1NC(=O)C1CC1,1.99%
13,CCN(C(=O)C1CCCN(c2nc(-c3ccc(OC)cc3)no2)C1)c1ccc(OC)cc1 (centres undefined),-3%
14,COc1ccc(NS(=O)(=O)c2cc(NC(=O)c3ccc(C)o3)ccc2N2CCCCC2)cc1,35.8%
15,Cc1ccc(NC(=O)CSc2nnc(N)s2)cc1S(=O)(=O)N1CCCCC1,6.53%
16,Cc1ccc(S(=O)(=O)N(C)C)cc1NC(=O)COC(=O)c1c(C)noc1C,0.61%
17,COCCNC(=O)COc1ccc(Oc2ccccc2)cc1,-1.45%
18,CC(=O)N1c2ccc(S(=O)(=O)N3CCCC3C(=O)NCc3ccccc3Cl)cc2CC1C (centres undefined),4.82%
19,O=C1C=C(c2ccc(O)cc2)C[C@@H](c2ccc(Cl)cc2)C1,81.7%
20,CCOc1cc(/C=N\NC(=O)c2ccc(NC(=O)C(C)(C)C)cc2)ccc1OC(=O)c1ccc(C)cc1,1.15%
21,CC1CCCN(S(=O)(=O)c2ccc3c(c2)C(C)(C)C(=O)N3C)C1 (centres undefined),-10.4%
22,CCOc1ccc(-c2csc(NC(=O)CSC3=NC(=O)CN3C(C)=O)n2)c2ccccc12,5.07%
23,CCOC(=O)C1CCCN(C2CC(=O)N(c3cccc(C)c3)C2=O)C1 (centres undefined),1.59%
24,CCCc1cc(C(=O)Cc2ccccn2)c(O)cc1O,10%
25,O=c1c2ccccc2nnn1CSc1ccc2ccccc2n1,-1.57%
26,O=C(CCc1ccccc1)N/N=C\C1CC=CCC1 (centres undefined),7.03%

row,Compound,inhibition
1,COc1cccc(-n2c(=O)c3cc(OC)c(OC)cc3n(CC(=O)Nc3cc(C)[nH]n3)c2=O)c1,-1.09%
2,Cc1cc(C)n2nc(SCC#N)nc2n1,-8.43%
3,CCOC(=O)C1=NN(c2ccccc2)C2=NC(C)=C(C(=O)OC)C(c3cccs3)N12 (centres undefined),7.43%
4,CC(=O)NC(=S)Nc1ccc(NC(=O)c2cccs2)cc1,11.5%
5,Cc1ccc2cc(CCl)c(Cl)nc2c1,3.67%
6,O=c1c(N=Nc2ccc(O)cc2)c(-c2ccccc2)[nH]n1-c1ccc([N+](=O)[O-])cc1,1.6%
7,CC(C)(C)c1ccc(C(=O)NCc2nnc(SCC(=O)NC3CCCCC3)o2)cc1,1.88%
8,O=C(CSc1nc2ccccc2c(=O)n1-c1ccc(F)cc1)Nc1cc(S(=O)(=O)N2CCOCC2)ccc1Cl,-8.66%
9,Cc1cccc2sc(NC(=O)CSc3nnnn3C)nc12,0.43%
10,CCCOP(=O)(c1ccc(N(C)C)cc1)C(O)c1ccc(Cl)cc1 (centres undefined),5.58%
11,CCOc1cc2[nH]c(=S)n(Cc3ccc(C(=O)NCCOC)cc3)c(=O)c2cc1OCC,9.7%
12,Cc1cc(C)nc(NC(=O)CN2C(=O)c3ccccc3C2=O)n1,-6.37%
13,CN(C(=O)CSc1ccncc1)C1CCCN(Cc2ccccc2F)C1 (centres undefined),0.19%
14,CC(=O)Nc1ccc(S(=O)(=O)Nc2cccc3cccnc23)cc1,45.2%
15,CCCc1nc2scc(-c3ccccc3)c2c(=O)n1N,-5.6%
16,CCOC(=O)c1c(NC(=O)CN2C(=O)NC3(CCCCCC3)C2=O)sc(C)c1-c1ccc(C)cc1,28%
17,COCCCNc1nc(SCc2ccccc2)nc2sc3c(c12)CCC3,22.8%
18,O=c1cc(C(F)(F)F)nc(SCc2cccc3ccccc23)[nH]1,-8.22%
19,O=C(c1cccc(C(=O)N2CCN(c3ccccc3)CC2)c1)N1CCN(c2ccccc2)CC1,2.4%
20,CCN(CC)C(=O)C1CCCN(c2ccc([N+](=O)[O-])cc2/C=N/NC(=O)c2cccc(O)c2)C1 (centres undefined),33.6%
21,CC(=O)c1sc(NC(=O)CCS(=O)(=O)c2ccccc2)nc1C,2.82%
22,O=C(Nc1cccc(Br)c1)c1ccc2snnc2c1,-7.02%
23,CC(Sc1cccc[n+]1[O-])C(=O)Nc1cccc(S(=O)(=O)N2CCOCC2)c1 (centres undefined),59.5%
24,CCOc1ccc(CCNC(=O)CCc2nnc3ccc(N4CCOCC4)nn23)cc1,-2.27%
25,COC(=O)Nc1ccc(S(=O)(=O)N2CCC(Cc3ccccc3)CC2)cc1,-8.89%
26,Cc1cc(C)nc(SCC(=O)OCC(=O)Nc2nc3ccccc3s2)n1,8.96%

row,Compound,inhibition
1,COc1ccc(NC(=O)CSc2nc(N)c(NC(=O)c3ccccc3F)c(=O)[nH]2)cc1,2.18%
2,Cc1ccc(S(=O)(=O)N2CCOCC2)cc1C(=O)NCC1CCCO1 (centres undefined),-3.47%
3,COc1cc(OC)cc(C(=O)Nc2ccccc2N2CCOCC2)c1,-0.09%
4,CCN1CCN(C(=O)c2cc3cc(Cl)ccc3[nH]2)CC1,8.44%
5,COc1ccc(CCN2CC(C(=O)N3CCCCCC3)CCC2=O)cc1 (centres undefined),-3.42%
6,CCOC(=O)C1CCN(c2c(NCCCN(CC)c3ccccc3)c(=O)c2=O)CC1,-3.6%
7,Cn1c(=O)c2c(nc(CN3CCN(C(=O)c4ccco4)CC3)n2Cc2ccc(Cl)cc2)n(C)c1=O,-1.33%
8,CCOC(=O)c1[nH]c(C)c(C(=O)NCc2ccc(OC)cc2)c1C,-4%
9,Cc1ccc(Cl)cc1N1CCN(S(=O)(=O)c2c(C)[nH]c(C)c2C(=O)N2CCCC2)CC1,3.04%
10,COc1cc(-c2ccc3sc(-c4ccsc4)c(C#CCO)c3c2)cc(OC)c1OC,92%
11,CC(C)(Cc1ccccc1)NC(=O)C(=O)c1cn(CC(=O)N2CCOCC2)c2ccccc12,4.2%
12,Cc1ccc(SCC(=O)NC2CC2)cc1,0.27%
13,CCN(CC)CCCNC(=O)c1cn(C)c2ccc(S(=O)(=O)N(C)C)cc2c1=O,-5.54%
14,CSc1ncccc1C(=O)Nc1nc2ccc(Oc3ccccc3)cc2s1,37.5%
15,COc1ccc(N2C(=O)NC(=O)/C(=C/c3cccc(OC(=O)c4cccs4)c3)C2=O)cc1Cl,9.67%
16,COc1ccc(Oc2cc(NC(=O)c3nn(C)cc3[N+](=O)[O-])cc([N+](=O)[O-])c2)cc1,6.62%
17,O=C(CSc1ccc2nnc(-c3cccnc3)n2n1)Nc1cccc(F)c1,-0.9%
18,CCC1CCCCN1CCCNC(=O)CC1Oc2ccc(C)cc2NC1=O (centres undefined),-6.87%
19,Cc1ccc(Cl)cc1N1CCN(C(=O)C2CCC(=O)N(C3CCCCCC3)C2)CC1 (centres undefined),98.3%
20,COCCNC(C(=O)Nc1ccc(C)cc1[N+](=O)[O-])c1ccccc1 (centres undefined),8.78%
21,Cc1cc2n(n1)SC(Nc1ccc(F)c(Cl)c1)N2 (centres undefined),-14.2%
22,COc1cc(NC(=O)c2cccc(Cl)c2)c(OC)cc1NC(=O)CN1CCCCC1,-1.94%
23,CCc1ccc(NC(=O)c2c(Cl)nc(C)c(Cl)c2C)cc1,6.49%
24,COc1cccc(-c2cc(C(=O)N3CC4(C)CC3CC(C)(C)C4)no2)c1 (centres undefined),79.9%
25,Cc1ccc(OCCN(C)C(=O)c2cc(COc3ccc(F)cc3F)on2)cc1,11.7%
26,Cc1nn(Cc2ccc(C(=O)N3CCN(C(=O)c4ccco4)CC3)o2)c(C)c1[N+](=O)[O-],3.29%
